# Measured values: the supplement of paper PMC4967469
# The IC50 comes from the fitted curve, where viability falls to half of the control; a fit beyond the top or the lowest dose is shown as a bound at that dose. The AUC spans the tested range (256-fold, ending at the top dose) of the same fit; it is 1 without any effect and falls as sensitivity rises. A top dose marked as inferred was calculated from the reported fits. For some assays here: An entry number marks a drug with two screens in the source, which often give different values.
# Columns and labels:
# Test in all cases: Viability of human cancer cell lines after 72 h of drug (GDSC screen)
# Shikonin = compound: CC(C)=CC[C@@H](O)C1=CC(=O)c2c(O)ccc(O)c2C1=O [Shikonin]; details: top dose 16 µM; top dose inferred
# Procedure: (§1)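 Human cancer cell lines in 384-well plates, medium with 10% serum, drug for 72 h over a 256-fold dose range (nine 2-fold or five 4-fold steps up to the top dose). Adherent lines were fixed and stained with the nucleic acid dye Syto60, suspension lines read with resazurin; signal relative to control wells, capped at 0 and 100%. One two-parameter sigmoid per drug and line, fitted in a mixed model over all curves with the slope shared within a line.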
# HG-5-113-01 = compound: CNC(=O)c1ccc(Nc2cc(Nc3ccccc3S(=O)(=O)C(C)C)c3cc[nH]c3n2)nc1 [HG-5-113-01]; details: top dose 10 µM; top dose inferred
# Procedure: as §1
# BMS-536924 = compound: Cc1cc(N2CCOCC2)cc2[nH]c(-c3c(NC[C@@H](O)c4cccc(Cl)c4)cc[nH]c3=O)nc12 [BMS-536924]; details: top dose 4 µM; screen: GDSC drug entry 1091; top dose inferred
# Procedure: as §1
# BIRB 0796 = compound: Cc1ccc(-n2nc(C(C)(C)C)cc2NC(=O)Nc2ccc(OCCN3CCOCC3)c3ccccc23)cc1 [BIRB 0796]; details: top dose 10 µM; top dose inferred
# Procedure: as §1
# SB-525334 = compound: Cc1cccc(-c2[nH]c(C(C)(C)C)nc2-c2ccc3nccnc3c2)n1 [SB-525334]; details: top dose 20 µM; top dose inferred
# Procedure: as §1
# VX-702 = compound: NC(=O)c1ccc(N(C(N)=O)c2c(F)cccc2F)nc1-c1ccc(F)cc1F [VX-702]; details: top dose 2 µM; top dose inferred
# Procedure: as §1
# Olaparib = compound: O=C(c1cc(Cc2n[nH]c(=O)c3ccccc23)ccc1F)N1CCN(C(=O)C2CC2)CC1 [Olaparib]
# Procedure: as §1
# Wee1 inhibitor 681640 = compound: O=C1NC(=O)c2c1c(-c1ccccc1Cl)cc1[nH]c3ccc(O)cc3c21 [Wee1 inhibitor 681640]; details: top dose 2 µM; top dose inferred
# Procedure: as §1
# [1] = top dose 5 µM, screen: GDSC drug entry 1017, top dose inferred
# [2] = top dose 10 µM, screen: GDSC drug entry 1495
Cell Line,AUC (Shikonin),IC50 (Shikonin) [µM],AUC (HG-5-113-01),IC50 (HG-5-113-01) [µM],AUC (BMS-536924),IC50 (BMS-536924) [µM],AUC (BIRB 0796),IC50 (BIRB 0796) [µM],AUC (SB-525334),IC50 (SB-525334) [µM],AUC (VX-702),IC50 (VX-702) [µM],AUC (Olaparib; [1]),IC50 (Olaparib; [1]) [µM],AUC (Wee1 inhibitor 681640),IC50 (Wee1 inhibitor 681640) [µM],AUC (Olaparib; [2]),IC50 (Olaparib; [2]) [µM]
"AU565 (breast, adherent)",0.453,0.733,0.797,5.32,0.968,> 4,0.837,7.8,0.888,> 20,0.982,> 2,0.974,> 5,0.981,> 2,,
"AsPC-1 (pancreas, adherent)",0.507,1.06,0.842,> 10,0.734,1.91,0.96,> 10,0.871,> 20,0.946,> 2,0.955,> 5,0.93,> 2,0.936,> 10
"BHT-101 (thyroid, adherent)",0.576,1.63,0.719,2.66,0.852,3.25,0.953,> 10,0.984,> 20,0.985,> 2,0.937,> 5,0.974,> 2,0.924,> 10
"BICR10 (head and neck, adherent)",0.715,4.5,0.851,9.54,0.955,> 4,0.888,> 10,0.984,> 20,0.972,> 2,0.97,> 5,0.753,0.759,0.948,> 10
"BT-483 (breast, adherent)",0.74,9.22,0.96,> 10,0.934,> 4,0.94,> 10,0.74,11.6,0.976,> 2,0.978,> 5,0.933,> 2,0.974,> 10
"C32 (melanoma, adherent)",0.652,2.73,0.762,3.81,0.878,> 4,0.96,> 10,0.96,> 20,0.987,> 2,0.987,> 5,0.962,> 2,0.964,> 10
"C-4-I (cervix, adherent)",0.555,1.43,0.819,6.31,0.953,> 4,0.945,> 10,0.972,> 20,0.986,> 2,0.986,> 5,0.979,> 2,,
"CAL-12T (non-small cell lung carcinoma, adherent)",0.617,2.18,0.791,5.09,0.873,> 4,0.971,> 10,0.973,> 20,0.978,> 2,0.969,> 5,0.897,> 2,0.95,> 10
"CAL-27 (head and neck, adherent)",0.751,5.34,0.608,1.24,0.854,3.27,0.982,> 10,0.982,> 20,0.921,> 2,0.904,> 5,0.975,> 2,0.896,> 10
"CAL-33 (head and neck, adherent)",0.544,1.31,0.672,1.89,0.865,3.54,0.917,> 10,0.961,> 20,0.95,> 2,0.959,> 5,0.861,1.7,0.951,> 10
"CAL-62 (thyroid, adherent)",0.481,0.892,0.653,1.62,0.945,> 4,0.987,> 10,0.988,> 20,0.988,> 2,0.97,> 5,0.959,> 2,0.895,> 10
"CCK-81 (large intestine, adherent)",0.764,5.48,0.836,6.06,0.985,> 4,0.987,> 10,0.975,> 20,0.989,> 2,0.99,> 5,0.942,> 2,0.989,> 10
"CHP-212 (neuroblastoma, adherent)",0.554,1.39,0.563,0.915,0.709,0.923,0.975,> 10,0.984,> 20,0.927,> 2,0.917,> 5,0.952,> 2,0.933,> 10
"CHSA0108 (chondrosarcoma, adherent)",0.519,1.14,0.712,2.75,0.826,2.95,0.975,> 10,0.805,12,0.956,> 2,0.918,> 5,0.964,> 2,0.955,> 10
"CHSA8926 (chondrosarcoma, adherent)",0.855,> 16,0.782,6.15,0.92,> 4,0.969,> 10,0.98,> 20,0.98,> 2,0.957,> 5,0.98,> 2,0.911,> 10
"COR-L23 (large cell lung carcinoma, adherent)",0.416,0.593,0.781,4.04,0.969,> 4,0.972,> 10,0.967,> 20,0.988,> 2,0.964,> 5,0.849,1.45,0.946,> 10

Cell Line,AUC (Shikonin),IC50 (Shikonin) [µM],AUC (HG-5-113-01),IC50 (HG-5-113-01) [µM],AUC (BMS-536924),IC50 (BMS-536924) [µM],AUC (BIRB 0796),IC50 (BIRB 0796) [µM],AUC (SB-525334),IC50 (SB-525334) [µM],AUC (VX-702),IC50 (VX-702) [µM],AUC (Olaparib; [1]),IC50 (Olaparib; [1]) [µM],AUC (Wee1 inhibitor 681640),IC50 (Wee1 inhibitor 681640) [µM],AUC (Olaparib; [2]),IC50 (Olaparib; [2]) [µM]
"CP50-MEL-B (melanoma, adherent)",0.59,1.76,0.728,2.76,0.835,2.59,0.988,> 10,0.506,1.29,0.972,> 2,0.986,> 5,0.988,> 2,0.987,> 10
"CS1 (bone, adherent)",0.529,1.21,0.824,6.87,0.982,> 4,0.935,> 10,0.963,> 20,0.984,> 2,0.934,> 5,0.835,1.53,0.92,> 10
"CaR-1 (large intestine, adherent)",0.524,1.2,0.704,3.17,0.863,> 4,0.975,> 10,0.975,> 20,0.942,> 2,0.965,> 5,0.903,> 2,,
"Calu-3 (lung adenocarcinoma, adherent)",0.52,1.15,0.853,> 10,0.938,> 4,0.978,> 10,0.981,> 20,0.961,> 2,0.98,> 5,0.978,> 2,0.955,> 10
"Capan-2 (pancreas, adherent)",0.555,1.46,0.768,4.53,0.822,3.02,0.979,> 10,0.884,> 20,0.985,> 2,0.985,> 5,0.982,> 2,0.983,> 10
"DBTRG-05MG (glioma, adherent)",0.436,0.649,0.731,3.24,0.877,> 4,0.978,> 10,0.932,> 20,0.974,> 2,0.98,> 5,0.946,> 2,0.959,> 10
"DMS-273 (small cell lung carcinoma, adherent)",0.367,0.419,0.77,4.03,0.957,> 4,0.942,> 10,0.656,3.48,0.979,> 2,0.947,> 5,0.972,> 2,,
"DOK (head and neck, adherent)",0.663,3.59,0.751,4.9,0.777,2.53,0.951,> 10,0.976,> 20,0.916,> 2,0.89,> 5,0.811,1.82,0.941,> 10
"EN (endometrium, adherent)",0.844,> 16,0.892,> 10,0.958,> 4,0.959,> 10,0.934,> 20,0.984,> 2,0.984,> 5,0.983,> 2,0.96,> 10
"ESS-1 (endometrium, adherent)",0.67,2.82,0.815,4.81,0.969,> 4,0.987,> 10,0.988,> 20,0.99,> 2,0.975,> 5,0.902,> 2,0.937,> 10
"EW-7 (Ewing sarcoma, semi-adherent)",0.512,1.07,0.707,2.2,0.7,0.839,0.99,> 10,0.601,2.28,0.949,> 2,0.964,> 5,0.977,> 2,0.824,5.02
"FADU (head and neck, adherent)",0.513,1.08,0.687,2.04,0.946,> 4,0.942,> 10,0.976,> 20,0.988,> 2,0.988,> 5,0.928,> 2,,
"FTC-133 (thyroid, adherent)",0.637,2.48,0.818,6.36,0.98,> 4,0.944,> 10,0.934,> 20,0.942,> 2,0.981,> 5,0.887,> 2,0.976,> 10
"G-401 (kidney, adherent)",0.36,0.393,0.78,4.54,0.81,2.36,0.911,> 10,0.888,> 20,0.978,> 2,0.932,> 5,0.927,> 2,0.924,> 10
"H513 (mesothelioma, semi-adherent)",0.899,> 16,0.926,> 10,0.973,> 4,0.986,> 10,0.976,> 20,0.986,> 2,0.986,> 5,0.98,> 2,0.971,> 10
